In the BET-seq Pho4 binding data (Le et al. 2018):
Some of the results follow. Values were computed here from the reads of four pooled replicates and scatter widely.

target: T1, Pho4 (S. cerevisiae) (UniProt P07270); test: relative binding free energy (BET-seq); higher = weaker binding; conditions: reference: library average
T1 sequence: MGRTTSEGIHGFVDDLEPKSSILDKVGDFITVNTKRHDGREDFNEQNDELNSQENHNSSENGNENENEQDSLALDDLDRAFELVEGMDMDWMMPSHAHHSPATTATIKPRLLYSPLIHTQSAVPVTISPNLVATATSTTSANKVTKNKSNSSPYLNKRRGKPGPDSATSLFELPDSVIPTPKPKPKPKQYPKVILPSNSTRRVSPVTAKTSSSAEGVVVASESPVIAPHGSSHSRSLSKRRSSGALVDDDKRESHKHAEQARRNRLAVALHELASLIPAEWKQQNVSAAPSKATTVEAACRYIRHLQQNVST

Sequence | relative binding free energy
GCAATCACGTGTGGTT | 0.28 kcal/mol
TTATACACGTGCGGTT | 0.01 kcal/mol
TGACGCACGTGGAGGT | -0.16 kcal/mol
GGATGCACGTGGCAAG | -0.1 kcal/mol
CTATGCACGTGTGGCG | -0.02 kcal/mol
TCATTCACGTGGCGGG | 0.19 kcal/mol
GAAGACACGTGCTGGG | 0.1 kcal/mol
TGTGCCACGTGGACTG | -0.02 kcal/mol
TGAGACACGTGGGTCT | -0.01 kcal/mol
TAAGCCACGTGTTAGG | -0.09 kcal/mol
ATTAACACGTGGTGGC | -0.03 kcal/mol
TGGCCCACGTGGTTTG | -0.22 kcal/mol
TGGTACACGTGCTTTG | -0.03 kcal/mol
GGGTTCACGTGTAAAA | 0.26 kcal/mol
AGTTGCACGTGTGTGT | 0.03 kcal/mol
TCATACACGTGTGAGG | 0.24 kcal/mol
TTTCGCACGTGATTTT | 0.11 kcal/mol
TTGTGCACGTGGGCCT | -0.22 kcal/mol
CAAGGCACGTGATGTT | -0.01 kcal/mol
ATTTGCACGTGTTAAT | 0.06 kcal/mol
GCTGGCACGTGGTGGA | -0.09 kcal/mol
GTAGTCACGTGGTACT | 0.03 kcal/mol
TTGTCCACGTGGTTGC | 0.1 kcal/mol

Sequence | relative binding free energy
GAAGACACGTGTGGGT | 0.18 kcal/mol
ACTGACACGTGGGGGG | -0.13 kcal/mol
AACTTCACGTGTGGTT | 0.23 kcal/mol
TTTGTCACGTGGCACG | -0.04 kcal/mol
TTTAGCACGTGCTCGT | -0.13 kcal/mol
TGATTCACGTGGTTAG | 0.31 kcal/mol
AGTCTCACGTGCGTGG | 0.14 kcal/mol
TATTGCACGTGCAATG | 0.05 kcal/mol
ATTTTCACGTGAAGGA | 0.27 kcal/mol
TATGACACGTGGTGTA | -0.17 kcal/mol
TTTCACACGTGTTTAA | 0.02 kcal/mol
TTGACCACGTGTATTT | 0.08 kcal/mol
TGGGGCACGTGAATGC | 0.01 kcal/mol
GTGAGCACGTGTTAAA | 0.12 kcal/mol
AAGGGCACGTGGGACT | -0.26 kcal/mol
TGTTGCACGTGTGTGA | 0.08 kcal/mol
GGGGCCACGTGAGGGT | 0.31 kcal/mol
AGGTACACGTGGATGT | 0.02 kcal/mol
AAGAACACGTGTTAGT | 0.04 kcal/mol
ATTGCCACGTGGGTAT | -0.16 kcal/mol
TTGCTCACGTGTGAGG | 0.21 kcal/mol
TGGTGCACGTGACTGG | 0.14 kcal/mol
TTGAACACGTGATGTA | 0.11 kcal/mol

Sequence | relative binding free energy
TTAGCCACGTGTTTGT | -0.17 kcal/mol
CATATCACGTGGGGAT | -0.06 kcal/mol
TGGGGCACGTGCTCAG | -0.12 kcal/mol
TATTTCACGTGGATGC | 0.2 kcal/mol
CGCGGCACGTGGCTGG | -0.16 kcal/mol
TAATGCACGTGGAAAT | 0.13 kcal/mol
TCGTCCACGTGTAGTG | 0.14 kcal/mol
AAGTACACGTGGTGGG | 0.01 kcal/mol
GGTTTCACGTGGGCAA | 0.24 kcal/mol
ATTAACACGTGGTTAT | -0.06 kcal/mol
GTTGTCACGTGAGGAC | 0.41 kcal/mol
CAATGCACGTGAGAGG | 0.25 kcal/mol
GGCTTCACGTGTTGAG | 0.27 kcal/mol
TTTTTCACGTGAAAGA | 0.53 kcal/mol
TGTAACACGTGAGTGG | 0.25 kcal/mol
TTGACCACGTGGTTTT | -0.12 kcal/mol
TTGGACACGTGAAGGG | 0.27 kcal/mol
ATATGCACGTGATTAG | 0.02 kcal/mol
GGTCTCACGTGTTTGG | 0.33 kcal/mol
GACGTCACGTGTTATG | 0.23 kcal/mol
TGATGCACGTGCAGTG | -0.16 kcal/mol
AGCCGCACGTGGGGTG | -0.43 kcal/mol
TTTTACACGTGGGTTA | -0.02 kcal/mol

Sequence | relative binding free energy
AGGATCACGTGGTACT | 0.15 kcal/mol
TAAAGCACGTGTTATT | -0.01 kcal/mol
TCGGGCACGTGGGGGA | -0.24 kcal/mol
AATCTCACGTGTAGGT | 0.16 kcal/mol
GGTATCACGTGTACGG | 0.14 kcal/mol
TTGATCACGTGGTGAC | 0.15 kcal/mol
CTGTCCACGTGTGGGA | -0.05 kcal/mol
GTAGGCACGTGGAATT | 0.09 kcal/mol
TCTATCACGTGTTAGT | 0.07 kcal/mol
TCGTGCACGTGTTTGG | -0.12 kcal/mol
GAAGTCACGTGTCTGT | 0.19 kcal/mol
ATTAGCACGTGTATGA | -0.06 kcal/mol
TGTGGCACGTGTGGTG | -0.02 kcal/mol
ATTTACACGTGTATAG | -0.01 kcal/mol
ACTGTCACGTGCGTTT | 0.14 kcal/mol
TTGTTCACGTGCCGAT | 0.22 kcal/mol
AGCGGCACGTGGAATG | -0.09 kcal/mol
AAATGCACGTGTGTTT | 0.09 kcal/mol
TGAGGCACGTGGTGGT | -0.06 kcal/mol
GTTTTCACGTGTTCTA | 0.23 kcal/mol
CTGAACACGTGGGTTA | 0 kcal/mol
GTGGTCACGTGGGAAG | 0.03 kcal/mol
TTTGTCACGTGAGCAA | 0.27 kcal/mol

Sequence | relative binding free energy
GTTGTCACGTGCGATA | 0.11 kcal/mol
AGGGACACGTGATGAG | 0.03 kcal/mol
GATTTCACGTGGGTGA | 0.25 kcal/mol
GTGATCACGTGTAGGT | 0.08 kcal/mol
TCTTTCACGTGGCGGT | 0.25 kcal/mol
TTTATCACGTGATACG | 0.13 kcal/mol
CGTGACACGTGTTGTG | -0.12 kcal/mol
TTTGGCACGTGACTAA | 0.12 kcal/mol
TTGGTCACGTGGTTTC | 0.27 kcal/mol
TAAGTCACGTGTTCTT | 0.07 kcal/mol
GTTCTCACGTGTTTGT | 0.19 kcal/mol
CAAGGCACGTGGAGGT | -0.19 kcal/mol
AATGCCACGTGGGGAG | -0.08 kcal/mol
GTGGACACGTGGAAGG | 0.02 kcal/mol
GGCGGCACGTGAGCGA | 0.11 kcal/mol
ATCTACACGTGGTGTT | 0.11 kcal/mol
GATCGCACGTGATGGT | 0.31 kcal/mol
TAAATCACGTGGGGAA | 0.09 kcal/mol
GTTGACACGTGTTGTG | 0.05 kcal/mol
GAGGTCACGTGTTAGC | 0.22 kcal/mol
CTTGTCACGTGCGGGG | -0.07 kcal/mol
GGTGGCACGTGTCGCA | 0 kcal/mol
TCGGCCACGTGTGGTG | 0.02 kcal/mol
